Laboratory results taken from patent US20120004205A1, “IL-13 INDUCED GENE SIGNATURE FOR EOSINOPHILIC ESOPHAGITIS” (Cincinnati Children's Hospital Medical Center, priority 2008, published 2012).

System: human esophageal epithelial cell lines (TE-1, TE-6, TE-7, and TE-13)
Experiment: Eotaxin-1 and eotaxin-2 expression after IL-13 stimulation, real-time PCR
Format: cell-based

## IL-13: cytokine Interleukin 13 (Preprotech) added to culture media to stimulate esophageal cells
  eotaxin-1 and eotaxin-2 expression after IL-13 stimulation: not overexpressed
